From patent US12390536B2, “Antibody-drug complex containing toll-like receptor 7/8 dual agonist compound” (ASTELLAS PHARMA INC., priority 2022, dated 2025) come the findings set out here.

One experiment has as its target T1, human CLDN6 (Homo sapiens, UniProt P56747).
T1 construct: The cells of human gastric cancer cell line NUGC-3 (JCRB cell bank) expressing CLDN6; host or cells: NUGC-3 human gastric cancer cell line
T1 sequence (P56747 1-220): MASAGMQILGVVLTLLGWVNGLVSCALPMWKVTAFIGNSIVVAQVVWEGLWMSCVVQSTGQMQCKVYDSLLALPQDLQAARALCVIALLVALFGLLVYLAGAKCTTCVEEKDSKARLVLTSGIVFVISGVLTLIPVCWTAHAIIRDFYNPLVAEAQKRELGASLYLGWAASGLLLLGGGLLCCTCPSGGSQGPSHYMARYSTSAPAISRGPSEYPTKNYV
Kind of experiment: Evaluation of binding activity to human CLDN6 by flow cytometry (NUGC-3 cells). To be noted: CLDN6 expressing gastric cancer cell line NUGC-3; 1 ng/mL to 25 μg/mL. As for the experimental part: The cells of human gastric cancer cell line NUGC-3 (JCRB cell bank) expressing CLDN6 were suspended with PBS (Wako, #045-29795) containing 5% FBS so as to have a concentration of 1×10^6 cells/mL. The suspension was seeded (added) in the wells of a 96-well V-bottom microplate at a rate of 100 μL/well. After centrifugation, the supernatant was removed. AbM: antibody comprising a heavy chain, aCLDN6-VH—CH1—CH2—CH3 and a light chain, aCLDN6-VL-CL, disclosed in International Publication No. WO2022/058298. Ab0, Ab1 and Ab2 were suspended with 5% FBS-containing PBS such that the concentrations fall in the range of 1 ng/mL to 25 μg/mL (12 dilution series were prepared by serial dilution at a 2.5-fold dilution rate from 25 μg/mL to 1 ng/mL). The suspensions were added at a rate of 100 μL/well and allowed to stand still at 4° C. for one hour. […] A histogram of PE (phycoerythrin) fluorescence intensity of viable cell fractions was prepared and geometric mean fluorescence intensity (gMFI) was calculated. gMFI values were plotted to make a graph by GraphPad Prism (company: GraphPad Software).
(Flow cytometry measures light scatter and fluorescence of single cells or particles in a stream.)

The next experiment has as its system NUGC-3 cells. The experiment in a line: Evaluation of in-vivo activity in xenograft model. The settings on record: NUGC-3 xenograft in SCID mice, 3 mg/kg via tail vein on Day 7 and Day 14 after transplantation. As for the experimental part:
NUGC-3 cells (5×10^6 cells) were suspended with 100 μL of Corning matrigel basal membrane matrix phenol red free (Corning, #356237) and subcutaneously transplanted into SCID mice (CB17/Icr-Prkdcscid/CrlCrlj, purchased from Charles River Laboratories Japan, Inc.) at the lateral region at a ratio of 100 μL/head. Day 7 and Day 14 after transplantation, PBS or a test antibody or a test antibody-drug conjugate (3 mg/kg) was administered through the tail vein of the tumor-bearing mice (n=6 or 9). As test antibodies, Ab0 and Ab1 were used. As test antibody-drug conjugates, ExL1A1, ExL5A1, ExL7A1, ExL1-Isotype, ExL5-Isotype and ExL7-Isotype were used. ExL1-Isotype is an antibody using an anti-KLH antibody (International Publication No. WO2013/094723) in place of Ab1 of ExL1A1. ExL5-Isotype and ExL7-Isotype were prepared in the same manner as in ExL1-Isotype. The major axis and minor axis of a transplanted tumor were measured by an electronic digital caliper (made by Mitutoyo Corporation) twice per week. A tumor volume was calculated in accordance with the following formula: […]

Where a chain is given by its changes, count along the chain named.

B1: Ab1: anti-CLDN6 antibody comprising a heavy chain of SEQ ID NO: 2 and a light chain of SEQ ID NO: 4 (antibody)
heavy: QVQLVESGGGVVQPGGSLRLSCKASGYSFTGYTMNWVRQAPGKGLEWVGLINPYNGGTIYNQKFKGRFTLSVDKSKSTAYLQMNSLRAEDTAVYYCARDYGFVLDYWGRGTLVTVSSASTKGPSVFPLAPSSKSTSGGTAALGCLVKDYFPEPVTVSWNSGALTSGVHTFPAVLQSSGLYSLSSVVTVPSSSLGTQTYICNVNHKPSNTKVDKRV[human IgG1 Fc left out]
light: DIQLTQSPSSLSASVGDRVTITCSASSSVSYLHWFQQKPGKAPKLLVYSTSNLPSGVPSRFSGSGSGTDYTLTISSLQPEDFATYYCQQRSIYPPWTFGQGTKLEIKRTVAAPSVFIFPPSDEQLKSGTASVVCLLNNFYPREAKVQWKVDNALQSGNSQESVTEQDSKDSTYSLSSTLTLSKADYEKHKVYACEVTHQGLSSPVTKSFNRGEC
Consider B1, for which the “binding to human CLDN6 (gMFI, flow cytometry)” value in the experiment with human CLDN6 is “bind to human CLDN6”. Further, in the experiment on NUGC-3 cells, the “antitumor effect (tumor volume)” value is reported as “none”.

B2: Ab2: anti-CLDN6 antibody comprising a heavy chain of SEQ ID NO: 6 and a light chain of SEQ ID NO: 8 (antibody)
heavy: B1 heavy with F102Y
light: B1 light
Turning to B2, the “binding to human CLDN6 (gMFI, flow cytometry)” value in the experiment with human CLDN6 was “bind to human CLDN6”.
